The IC50 comes from the fitted curve, where viability falls to half of the control; a fit beyond the top or the lowest dose is shown as a bound at that dose. AUC sums up the same curve from the lowest dose to the 256-fold higher top dose; it is 1 without any effect and falls as sensitivity rises. For some assays here: Where the top dose is marked as inferred, it comes from the curve model; the source does not state it.

Experiment in all cases: Viability of human cancer cell lines after 72 h of drug (GDSC screen)
Compound in one assay: C=C(c1ccc(C(=O)O)cc1)c1cc2c(cc1C)C(C)(C)CCC2(C)C [Bexarotene]
Particulars: top dose 8 µM. Here is the method:
(§1)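 Human cancer cell lines in 384-well plates, medium with 10% serum, drug for 72 h over a 256-fold dose range (nine 2-fold or five 4-fold steps up to the top dose). Adherent lines were fixed and stained with the nucleic acid dye Syto60, suspension lines read with resazurin; signal relative to control wells, capped at 0 and 100%. One two-parameter sigmoid per drug and line, fitted in a mixed model over all curves with the slope shared within a line.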

Compound in the next assay: COc1cc(C(=O)NC2CCN(C)CC2)ccc1Nc1ncc2c(n1)N(C1CCCC1)C(C)CC(=O)N2C [NPK76-II-72-1]
Particulars: top dose 10.24 µM; top dose inferred. The protocol:
as §1

Compound in another assay: COc1cc([C@@H]2c3cc4c(cc3[C@@H](O[C@@H]3O[C@@H]5CO[C@@H](C)O[C@H]5[C@H](O)[C@H]3O)[C@H]3COC(=O)[C@H]23)OCO4)cc(OC)c1O [Etoposide]
To be noted: top dose 16 µM. The protocol: as §1

Compound in the next assay: COc1ccc(C(=O)CC2(O)C(=O)Nc3c(Cl)ccc(Cl)c32)cc1 [YK 4-279]
Particulars: top dose 10 µM. Here is the method: as §1

Compound in a further assay: Cc1ccc2nc(NCCN)c3ncc(C)n3c2c1 [BMS-345541]
Particulars: top dose 16 µM. The protocol:
as §1

Compound in a further assay: NC(=O)Nc1cc(-c2cccc(F)c2)sc1C(=O)N[C@H]1CCCNC1 [AZD7762]
Particulars: top dose 2 µM. Here is the method:
as §1

Compound in the next assay: O=C(O)c1ccc(-c2c[nH]c3ncc(-c4ccccc4)cc23)cc1C1CCCC1 [GSK-650394]
Particulars: top dose 16 µM; top dose inferred. Here is the method: as §1

Compound in the next assay: Oc1nc(-c2ccc(C(F)(F)F)cc2)nc2c1CSCC2 [XAV 939]
Particulars: top dose 5 µM; top dose inferred. The protocol: as §1

Usually IC50 stands for the concentration that inhibits the measured activity by half. HuO-3N1 (osteosarcoma, adherent): the AUC turned out to be 0.887 in the assay with Bexarotene; 0.965 in the assay with NPK76-II-72-1; 0.797 in the assay with Etoposide; 0.855 with YK 4-279; 0.911 with BMS-345541; 0.668 with AZD7762. The values for the AUC in the assay with GSK-650394 and with XAV 939 were 0.981 and 0.952, respectively. The IC50 with Bexarotene was over 8 µM; with NPK76-II-72-1, over 10.2 µM; with Etoposide, 10.5 µM; with YK 4-279, over 10 µM; with BMS-345541, over 16 µM; with AZD7762 it was 0.429 µM. The IC50 is over 16 µM with GSK-650394 and over 5 µM with XAV 939.

In the case of “IA-LM (large cell lung carcinoma, adherent)”, the AUC with Bexarotene amounted to 0.816; with NPK76-II-72-1, 0.937; with Etoposide, 0.682; with YK 4-279, 0.92; with BMS-345541 it was 0.905; in the assay with AZD7762, 0.858. The AUC was found to be 0.679 with GSK-650394 and 0.954 in the assay with XAV 939. Moreover, the IC50 was 5.15 µM with Bexarotene; over 10.2 µM with NPK76-II-72-1; over 10 µM with YK 4-279; over 16 µM in the assay with BMS-345541; 1.97 µM with AZD7762; 3.37 µM with GSK-650394. The IC50 with XAV 939 is over 5 µM.

With IHH-4 (thyroid, semi-adherent), the AUC came to 0.93 with Bexarotene; 0.991 in the assay with NPK76-II-72-1; 0.185 in the assay with Etoposide; 0.649 with YK 4-279; 0.905 with BMS-345541; 0.605 in the assay with AZD7762. For the same cell line, the AUC with GSK-650394 was 0.729; in the assay with XAV 939, 0.986. Also, the IC50 is over 8 µM with Bexarotene; over 10.2 µM with NPK76-II-72-1; 0.15 µM with Etoposide; 1.47 µM with YK 4-279; 13.9 µM with BMS-345541; 0.228 µM in the assay with AZD7762. Besides, the IC50 was 3.8 µM with GSK-650394 and over 5 µM with XAV 939.

Consider IMR-5 (neuroblastoma, adherent), for which the AUC with Bexarotene is 0.991; with NPK76-II-72-1, 0.798; with Etoposide, 0.314; with YK 4-279, 0.669; with BMS-345541, 0.808; with AZD7762, 0.923. Further, the results for the AUC in the assay with GSK-650394 and with XAV 939 were 0.9 and 0.954, respectively. Further, the IC50 with Bexarotene is over 8 µM; in the assay with NPK76-II-72-1 it was 4.01 µM; in the assay with Etoposide, 0.333 µM; in the assay with YK 4-279, 1.69 µM; in the assay with BMS-345541, 6.71 µM; in the assay with AZD7762, over 2 µM. For the same cell line, the IC50 was 14.7 µM with GSK-650394 and over 5 µM with XAV 939.

Regarding “IST-SL1 (small cell lung carcinoma, semi-adherent)”, the AUC with Bexarotene was 0.972; with NPK76-II-72-1, 0.538; with Etoposide it was 0.831; in the assay with YK 4-279 it was 0.774; in the assay with BMS-345541, 0.835; in the assay with AZD7762 it was 0.762. The AUC was 0.832 in the assay with GSK-650394 and 0.95 in the assay with XAV 939. Further, the IC50 with Bexarotene is over 8 µM; with NPK76-II-72-1, 0.815 µM; in the assay with Etoposide, 10.5 µM; in the assay with YK 4-279, 4.04 µM; with BMS-345541, 10.9 µM; in the assay with AZD7762 it was 0.733 µM. Moreover, the IC50 was 10.7 µM with GSK-650394 and over 5 µM in the assay with XAV 939.

JEG-3 (urogenital system, adherent): the AUC in the assay with Bexarotene stood at 0.921; with NPK76-II-72-1, 0.991; in the assay with Etoposide, 0.586; in the assay with YK 4-279, 0.727; with BMS-345541, 0.967; with AZD7762, 0.808. Moreover, the AUC worked out at 0.961 with GSK-650394 and 0.966 with XAV 939. Also, the IC50 with Bexarotene is over 8 µM; with NPK76-II-72-1 it was over 10.2 µM; in the assay with Etoposide, 1.67 µM; in the assay with YK 4-279, 2.56 µM; with BMS-345541 it was over 16 µM; with AZD7762 it was 0.912 µM. Moreover, the results for the IC50 with GSK-650394 and with XAV 939 were over 16 µM and over 5 µM, respectively.

JHH-1 (liver, adherent): the AUC with Bexarotene worked out at 0.776; with NPK76-II-72-1 it was 0.964; with Etoposide, 0.748; with YK 4-279, 0.705; with BMS-345541, 0.887; with AZD7762 it was 0.755. Also, the AUC is 0.766 with GSK-650394 and 0.971 with XAV 939. Besides, the IC50 in the assay with Bexarotene was 3.47 µM; with NPK76-II-72-1, over 10.2 µM; in the assay with Etoposide, 5.53 µM; in the assay with YK 4-279, 2.5 µM; with BMS-345541, over 16 µM; with AZD7762 it was 0.734 µM. The figures for the IC50 with GSK-650394 and with XAV 939 were 6.4 µM and over 5 µM, respectively.

For the cell line JHH-2 (liver, adherent), the AUC in the assay with Bexarotene worked out at 0.985; with NPK76-II-72-1 it was 0.957; in the assay with Etoposide it was 0.928; with YK 4-279, 0.796; with BMS-345541, 0.893; with AZD7762, 0.766. The values for the AUC in the assay with GSK-650394 and with XAV 939 were 0.981 and 0.952, respectively. The half-inhibitory concentration (IC50) with Bexarotene is over 8 µM; with NPK76-II-72-1, over 10.2 µM; with Etoposide, over 16 µM; in the assay with YK 4-279, 5.08 µM; with BMS-345541 it was over 16 µM; with AZD7762, 0.794 µM. For the same cell line, the IC50 in the assay with GSK-650394 is over 16 µM; in the assay with XAV 939, over 5 µM.

On to JHH-4 (liver, adherent), for which the AUC in the assay with Bexarotene came to 0.894; in the assay with NPK76-II-72-1, 0.872; with Etoposide, 0.733; with YK 4-279 it was 0.66; with BMS-345541 it was 0.983; with AZD7762, 0.98. Besides, the AUC with GSK-650394 amounted to 0.872; with XAV 939, 0.928. Further, the IC50 in the assay with Bexarotene was over 8 µM; with NPK76-II-72-1 it was 9.7 µM; in the assay with Etoposide, 4.59 µM; with YK 4-279, 1.74 µM; with BMS-345541, over 16 µM; with AZD7762 it was over 2 µM. Moreover, the IC50 with GSK-650394 is 15.2 µM; in the assay with XAV 939, over 5 µM.

For the origin of these results see the supplement of paper PMC4967469.
